# According to the supplement of paper PMC12217912:
# The list shows a part of the results. Sequences were assembled here from the parent chain. Inactive controls read about 0.05.
# B1: TEV protease; numbered along this chain (parent)
# chain: MGESLFKGPRDYNPISSSICHLTNESDGHTTSLYGIGFGPFIITNKHLFRRNNGTLVVQSLHGVFKVKDTTTLQQHLVDGRDMIIIRMPKDFPPFPQKLKFREPQREERICLVTTNFQTKSMSSMVSDTSCTFPSGDGIFWKHWIQTKDGQCGSPLVSTRDGFIVGIHSASNFTNTNNYFTSVPKNFMELLTNQEAQQWVSGWRLNADSVLWGGHKVFMVKPEEPFQPVKEATQL
# Variants of: B1
# Test: raw area under fraction-flipped curve 0-4 h after induction (AUC4h, not background-subtracted), DNA-recorder readout of cleavage of the substrate (dimensionless); higher = more cleavage of the substrate by the protease variant
# Conditions: temperature: 34 °C; time window: 0-4 h after rhamnose induction
# Procedure: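 In vivo DNA recorder in E. coli TOP10(DE3) ΔrhaA at 34 °C. Each TEVp single-site mutant (parent TEVp 0) is paired with a single-site variant of the 7-mer TEVs (canonical ENLYFQ|S). The substrate sits between flexible linkers in a Bxb1-sfGFP-TEVs-SsrA fusion, so cleavage stabilises Bxb1 and speeds flipping of a recombination array, read by NGS. The value is the raw area under the fraction-flipped curve over 0-4 h after rhamnose induction (AUC4h), with ≥20 reads per time point. It is not background-subtracted; inactive controls average about 0.047.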
# 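Note: Bxb1 expression induced with 0.2% (w/v) L-rhamnose at OD600 near 0.5, cultures sampled hourly, flipped fraction per protease–substrate barcode pair counted by paired-end Illumina sequencing.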
Variant,area with substrate ENLYFQA,area with substrate ENLYFQC,area with substrate ENLYFQD,area with substrate ENLYFQH,area with substrate ENLYFQI,area with substrate ENLYFQK,area with substrate ENLYFQL,area with substrate ENLYFQM,area with substrate ENLYFQN,area with substrate ENLYFQS,area with substrate ENLYFQE,area with substrate ENLYFQG,area with substrate ENLYFQP,area with substrate ENLYFQR,area with substrate ENLYFQT,area with substrate ENLYFQV,area with substrate ENLYFQW,area with substrate ENLYFQF,area with substrate ENLYFQY,area with substrate ENLYFQQ
S130M,0.0921,0.0839,0.101,0.0646,0.056,0.0644,0.0685,0.0803,0.0354,0.0931,,,,,,,,,,
L77C,0.0786,0.083,,0.0715,0.0617,0.0849,0.0579,,0.0718,0.0876,0.0587,0.0871,0.0613,0.0573,0.0697,0.0536,0.102,,,
S135W,0.0666,0.0624,,0.0655,0.0599,,0.0498,0.0621,0.0533,0.0641,,0.0419,,0.0572,0.0449,0.059,0.0453,0.0518,,
P225E,0.0989,,,0.078,,0.058,0.0735,,0.067,0.107,,0.0908,,,0.0663,,0.0526,,0.0502,
L190A,,0.11,,0.0657,,0.0691,0.0502,0.0907,,0.0896,,0.0943,0.0704,0.0705,,,0.0636,,0.0739,0.0499
F173N,0.093,,0.0431,,,0.0623,0.0623,0.0612,,0.0853,,0.0959,0.0511,0.0586,0.0654,0.0549,,,,
N206Y,,0.0851,,0.0732,,0.052,0.0641,0.0609,0.0786,0.0777,,,,0.0526,0.0522,0.0522,0.0631,,,0.0723
Q194Y,0.093,,0.073,,,0.0577,,0.0995,,0.106,0.0674,0.0916,,0.0701,0.068,,,,0.0899,
Q146F,0.129,0.111,,0.089,0.0584,0.0609,,0.0904,0.0813,0.116,,,,,,0.0646,,,,
Q118R,0.124,,,0.0822,,0.035,,0.0914,,0.11,0.0664,0.0905,0.0592,0.0649,0.0738,0.052,,,,
C111P,0.0602,0.0616,0.0466,0.0486,0.0515,0.0521,0.0491,0.0342,0.0266,0.052,,0.0523,,0.044,,,,,,
V58N,0.101,,,0.0598,,,,,0.0635,0.0553,,0.0706,,0.0404,0.0441,,,,0.0468,0.0643
L191S,,0.0456,,,0.0546,,,,0.0615,0.0569,0.0459,,0.0568,0.0534,0.0643,0.0508,,,0.0628,0.0497
T147A,0.0902,0.11,,,0.056,0.0669,0.0536,,0.0373,0.0851,0.0704,0.0623,0.0614,0.0728,0.0739,0.0495,0.0642,,0.0783,
T147H,,0.0556,0.0356,0.0714,0.057,0.0708,0.0578,0.0597,0.0616,0.0607,0.0808,,,0.0713,0.052,,,,0.0512,0.0375
T147K,0.0479,0.0567,0.0389,,,,0.0622,0.0624,,0.0591,,,,0.0731,0.0588,,,,0.0674,
F133A,0.101,0.125,,,,,0.0609,0.0877,0.0756,0.103,,,0.0764,0.0672,0.0668,0.0589,0.0977,0.0758,,
W203I,0.0589,0.0615,0.0765,,0.0568,0.0657,0.04,,0.0501,0.0674,,0.0473,,0.0344,0.0561,0.0581,,0.0606,,
L156T,,0.107,0.0598,0.0639,0.0525,0.0551,0.0544,,0.0775,0.0936,,0.0594,0.0581,0.0582,0.0687,,,,,
H76K,0.0716,0.088,,0.0729,,,0.0599,,,0.0833,,,,0.0673,0.062,,0.0727,,,0.0766
F140Q,0.0675,,,0.0749,,0.0596,,,,0.0591,,,,,,,,,0.0646,
M125P,0.113,,,0.0869,0.0617,,0.0574,0.0866,0.0895,0.109,,0.119,0.0635,,,,0.0623,,0.0833,
V67P,0.0405,0.0633,,,0.0412,,0.0453,0.0359,0.0415,0.0508,,0.0418,,0.0387,0.0279,,0.0456,,,0.0417
L73C,0.0829,0.0846,0.0526,0.0491,0.0583,,0.0645,,0.0693,0.075,,,,0.0482,0.0583,,0.0541,,0.0594,
Y179C,0.0524,0.0624,0.0152,0.0617,0.0508,0.0596,0.0559,0.0628,0.062,0.0624,,0.0593,,0.0612,0.0621,0.0626,0.0541,,,
F101R,0.0555,0.0396,,0.0725,0.0544,0.0579,0.0382,0.0519,,0.0552,,0.0437,,0.0514,0.0545,0.0404,0.0525,0.0423,0.0432,0.0451
L99F,0.0748,,,0.0704,,,0.0596,0.045,,0.0869,,0.0967,,0.0586,,,,,0.0805,
Y34R,,0.0925,,,0.0637,,,0.0548,,0.0912,,0.1,,,,,,,,
I19A,,0.0782,,0.0781,0.0438,0.0585,,0.103,0.0741,0.0931,0.0528,0.0801,,0.053,0.0634,,0.0612,,,
P222K,0.078,0.0993,0.0716,0.0626,,,0.0515,0.064,0.0643,0.0957,,,,0.0451,0.059,,0.0626,0.0623,0.0529,
